Test results published in the supplement of paper PMC3334620.
The full ranking holds about 33,000 sequences; the median of “E-score (-0.5 to 0.5)” is about -0.032, and the highest 2% start at about 0.36. Some of the results follow.

Target: T1, Sko1 (UniProt Q02100)
T1 sequence: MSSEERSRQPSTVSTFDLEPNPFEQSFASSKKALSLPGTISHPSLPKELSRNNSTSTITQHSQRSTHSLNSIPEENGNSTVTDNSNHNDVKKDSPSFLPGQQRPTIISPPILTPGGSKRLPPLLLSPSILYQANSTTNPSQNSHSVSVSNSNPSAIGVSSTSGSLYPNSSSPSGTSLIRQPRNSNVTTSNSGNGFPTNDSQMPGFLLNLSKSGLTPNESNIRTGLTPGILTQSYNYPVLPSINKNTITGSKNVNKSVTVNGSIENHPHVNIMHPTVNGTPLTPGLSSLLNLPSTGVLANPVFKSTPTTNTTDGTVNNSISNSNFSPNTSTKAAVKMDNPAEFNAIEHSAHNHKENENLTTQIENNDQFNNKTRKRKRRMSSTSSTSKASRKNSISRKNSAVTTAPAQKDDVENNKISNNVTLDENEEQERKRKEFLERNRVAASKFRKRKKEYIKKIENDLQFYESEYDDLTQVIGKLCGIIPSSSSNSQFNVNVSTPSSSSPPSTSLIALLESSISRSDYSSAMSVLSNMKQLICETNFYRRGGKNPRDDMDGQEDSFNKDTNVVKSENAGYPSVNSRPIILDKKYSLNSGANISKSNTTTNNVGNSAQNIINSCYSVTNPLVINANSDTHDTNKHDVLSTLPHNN
Experiment: PBM E-score (8-mer binding enrichment) (E-score (-0.5 to 0.5)); higher = stronger / more preferred TF binding; most listed sequences are background and not binding sites
Details: protein concentration: 200 nM; construct: GST-full length
Description: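 Universal 'all 10-mer' protein binding microarrays (Agilent AMADID 015681) probed with GST-tagged S. cerevisiae TFs (full-length or DBD) made by in vitro transcription/translation (PURExpress), about 100-200 nM. Bound TF was detected with fluorescent anti-GST. Each ungapped 8-mer (which stands for itself and its reverse complement) is scored by the PBM enrichment score (E-score), a modified Wilcoxon-Mann-Whitney statistic from -0.5 to +0.5, computed with the Universal PBM Analysis Suite. Scale: above 0.35 generally sequence-specific binding.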

Sequence	PBM E-score
CCCGCGCG	-0.0752
GAGAGAAA	0.1
GACTTTGC	-0.117
AGTATCTC	0.0412
AAAACATA	0.201
GACGGATC	-0.0868
AATACGTG	0.458
ATTGATTG	0.0764
ATAAATTG	0.123
GCTTTAAC	0.0982
CTAGGATA	-0.0362
ACGCTATG	0.182
CCATTCCC	-0.327
CGTGAACG	0.0332
AAAACGTA	0.449
CGTTCACC	0.0821
AATAACCT	0.078
ACATTCAA	0.0223
AGGCATAC	-0.00032
GAGTGTCC	-0.0295
AGCTTACC	-0.212
GAGGTGAC	0.256
CCATCATA	0.0672
ACGTCACG	0.486
CGGAATGC	-0.272

Sequence	PBM E-score
AATGGCCC	-0.166
AAAGCAGT	0.0167
GAGACAAC	-0.139
CTTATCTC	0.0657
AACGAGGG	-0.137
CAGACCTG	-0.251
ACTCAGAA	0.0395
AGGTTAAT	0.13
CCGGGACA	-0.201
GCTGTACC	-0.221
AAGGTGCG	-0.172
AGGATTAG	-0.0447
CGCACGCC	-0.038
ACTCTCTG	-0.135
ATTTGTTC	0.309
GGTCGTAA	0.249
AACTCTTA	0.0851
GGCCCGAC	-0.242
GACATCGA	-0.0197
ATCGAGGA	-0.0975
CGCACCGC	-0.0671
ATGTATTA	0.206
AAGCTACC	-0.034
TACTCGCA	0.13
ACACTCAA	0.169

Sequence	PBM E-score
GTTACGGA	0.0875
ACCTGCCC	-0.208
AATGCCAA	-0.125
AACGGTCC	-0.292
AAACAAGC	-0.123
AGCACCTG	-0.212
GCTATACC	-0.171
CGCTCACC	-0.131
ATCAGCAA	-0.149
AAAGACCC	-0.152
ATGCTTGA	0.191
ATGCGCGA	-0.0192
TCGATCCA	-0.0219
ACTGGAGA	-0.15
ATCACAAG	0.0431
AGAGGACT	-0.223
AGGTTTAC	0.017
CACGACAA	0.0437
CTCCCCTC	-0.325
AAGTACAA	0.0267
ATCCGATA	0.00167
GGGTATCA	-0.0528
CTGAGAAA	-0.075
CTCTTTTC	-0.123
CTCCCGGA	-0.318

Sequence	PBM E-score
AAGATGCG	-0.0622
GACGTGTA	0.374
AACACGAA	0.187
GAAGGCTA	-0.123
CTATGAAC	0.0471
AACACCAC	-0.0954
GCTGAAAA	0.0234
CGGATCCA	-0.0924
AGTAGTCA	0.0613
ACAAACGG	-0.063
AGAGCTCC	-0.337
GTAGGCTA	0.0728
ATACAACA	0.197
ACTCACTA	0.127
ATCGGCAG	-0.217
CTTTAGCC	0.0219
GGCCCCTA	-0.188
CTGTGAAC	-0.157
CGTTCGTC	0.222
ATAGTGGA	0.0138
CATCGTGA	0.0986
ATCAATAC	0.231
GAGATGCC	0.0241
GACAACGA	-0.00553
CCCTTATC	0.00875

Sequence	PBM E-score
TAGGTCGA	-0.0668
ATGAAAAA	0.0752
AAGGACGC	-0.0793
AGTTTCAG	-0.133
ACCGGTCT	-0.201
ACGGCTAC	0.105
CAGTTAAG	-0.0203
CCGGACCC	-0.151
AAGAGTAG	-0.018
ACATTCGC	-0.0797
AAGCGCGT	0.12
CGTGAAGC	0.134
TGAGGAAA	0.0703
ACCAACGT	0.334
AAGTGGGT	-0.0224
AGCCTAAA	-0.0192
ATCAGGTA	0.0175
CCCTGTCG	-0.144
ATAGTGAG	-0.0525
AAGTGGAC	-0.0558
CACATGCA	-0.0961
AAGGGGAC	-0.0793
ACATGCGC	0.159
AATAAATT	0.209
TGCTATAA	-0.0988

Sequence	PBM E-score
GTAATCTA	0.394
CACCATGG	-0.233
ACGCGCTC	0.0376
ATCTACAA	0.134
TGAAGTAA	0.0781
AAAAGATC	0.0791
ATCAGGAG	-0.204
AGCGCCAC	-0.177
ACTTAACC	-0.0102
GAGCTCCC	-0.21
CGGCGACC	-0.219
AGCTTCAC	0.128
CTTATTCC	-0.0659
TACCTGGA	-0.0553
ATACAGAC	0.0894
ATAGAGAC	0.0383
GAGATAAC	0.139
GTAGATCA	0.199
CGAGTAGC	-0.0163
GTAAGTAA	0.156
AAGCACGT	0.389
CGGTCATA	0.0986
GCTACTAC	0.223
ATTTGGAC	0.0421
TAGCAAGA	0.135

Sequence	PBM E-score
GCAATCAA	0.0627
ATTACCCC	-0.0232
CCGCGACA	-0.0282
CTAAATAA	0.178
GGTGAGGA	-0.132
TACAATGA	0.133
AGGATCAT	-0.0991
AATCGCCC	-0.183
GCGGGGTA	-0.162
AGCCCGGG	-0.435
GTCCTGAA	-0.0708
AATCCAGA	0.0558
ATGCGGCG	-0.182
CAGAAGAA	0.0487
AACTCGTG	0.0165
AAACTGTT	0.0677
AACATTCT	0.147
CTGGACAC	-0.319
AGCAACTG	0.045
TCGGACGA	0.0496
ACTAAAAT	0.174
CTATTCCA	0.104
